The whole screen tested about 50,000 compounds, of which about 800 (1.6%) showed an effect of 50% or more. The list shows a part of the results.
target: Bcl-2-like protein 10 (Homo sapiens) (UniProt Q9HD36); assay: Phenotype converters, Bcl-B/TR3 peptide binding displacement, primary biochemical FP (AID 1240); conditions: GST-Bcl-B / FITC-TR3 peptide fluorescence polarization; stronger effect = higher value; compound at 3.75 mg/L;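 further: 0% = Bcl-B with tracer peptide and DMSO and 100% = tracer peptide lacking Bcl-B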
UniProt Q9HD36, sequence (Q9HD36 whole entry, looked up): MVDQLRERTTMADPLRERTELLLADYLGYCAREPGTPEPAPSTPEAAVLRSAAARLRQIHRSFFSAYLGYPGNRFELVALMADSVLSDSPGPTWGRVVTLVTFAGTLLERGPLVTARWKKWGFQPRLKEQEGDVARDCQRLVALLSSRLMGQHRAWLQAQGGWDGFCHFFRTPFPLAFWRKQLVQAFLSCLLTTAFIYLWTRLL

Row | Structure (SMILES) | displacement [%]
1 | O=C(CCCN1C(=O)c2ccccc2C1=O)N(Cc1ccccc1)Cc1ccccc1 | 6.1
2 | COc1ccc(-c2nc(=NC(=O)c3ccco3)sn2-c2ccccc2)cc1 | 3.4
3 | COc1ccc(CN2CCN(Cc3ccccn3)CC2)c(OC)c1 | -17.1
4 | O=C(O)CN1C(=O)/C(=C/c2ccc(-c3ccccc3[N+](=O)[O-])o2)SC1=S | 23
5 | COc1ccc(C(=O)N2N=C(C(F)(F)F)CC2(O)c2ccccc2)cc1 (stereo unspecified) | 15.7
6 | O=C(/C=C/c1ccccc1)Nc1ccc(O)c(-c2nc3ccccc3o2)c1 | -3.2
7 | O=C(O)C1C2CCC(C2)C1C(=O)NCC1CCCO1 (stereo unspecified) | -11
8 | COc1ccc(CC(=O)NC2CC(C)(C)NC(C)(C)C2)cc1OC | -11.5
9 | COc1ccccc1C(=O)N1CCN(S(=O)(=O)c2ccccc2)CC1 | -3.6
10 | Cc1ccc2nc(/N=C(/N)NC(=O)Cc3ccccc3)nc(C)c2c1 | 1.7
11 | CN1C(=O)C(=Cc2ccc(-c3cc(Cl)ccc3Cl)o2)C(=O)N(C)C1=O | 3.8
12 | COc1ccc(/C=C/C(=O)NC(=S)Nc2ccc(I)cc2)cc1OC | 10
13 | COC(=O)c1sccc1NS(=O)(=O)c1cc(Cl)ccc1Cl | -9.2
14 | Cc1ccsc1C=Nc1ccc(Br)cn1 | 4.3
15 | COc1ccc(/C=C2\C=C(c3ccc(Cl)cc3)OC2=O)cc1OC | 147
16 | CC(=O)Nc1ccc(C(=O)Nc2ccc(Cl)cn2)cc1 | 20
17 | Cn1/c(=N/N=C/c2cc(Br)ccc2O)sc2ccccc21 | -9.5
18 | COc1ccc(C(=O)Nc2ccc(-c3nc4ccccc4c(=O)o3)cc2)cc1 | -2.3
19 | O=[N+]([O-])c1ccc(N=Cc2c[nH]c3ccccc23)cc1 | 4.3

Row | Structure (SMILES) | displacement [%]
20 | CCOC(=O)C1=C(C)N=c2s/c(=C\c3ccccn3)c(=O)n2C1c1ccc(Cl)cc1 (stereo unspecified) | 10.7
21 | COC(=O)COc1ccc(/C=C2\C(=O)NC(=O)N(c3cc(C)cc(C)c3)C2=O)cc1OC | 3.4
22 | CCOC(=O)c1c(NC(=S)Nc2ccccc2)sc2c1CC(C)(CC)OC2 (stereo unspecified) | -4.9
23 | COc1ccccc1-n1sc2c(c1=S)-c1ccc(C)cc1NC2(C)C | 1.1
24 | CC1=C(C(=O)OC(C)C)C(c2cccc(Cl)c2)C2=C(CCCC2=O)N1 (stereo unspecified) | 3.2
25 | O=C(Cc1ccc(F)cc1)Nc1ccccc1Br | 13.2
26 | CCOc1ccccc1N(CC(=O)Nc1ccccc1CC)S(=O)(=O)c1ccccc1 | -5.8
27 | O=c1c2c(Br)c3c(=O)n(CCO)c(=O)c3c(Br)c2c(=O)n1CCO | 35.2
28 | CCOC(=O)c1c(NC(=S)NC(=O)Cc2ccccc2)sc(C)c1C | 0.1
29 | Cc1ccccc1-c1noc(-c2ccc(C(C)(C)C)cc2)n1 | -6.5
30 | COc1ccc(S(=O)(=O)NC2CCCCCC2)cc1 | -5.3
31 | COc1cccc(NC2=C(Cl)C(=O)N(c3cccc(C)c3)C2=O)c1 | 0.6
32 | Cc1nc(-c2ccc([N+](=O)[O-])cc2)nc2[nH]ccc(=O)c12 | -17.2
33 | Cc1ccc(C(=O)NCc2ccccc2)cc1S(=O)(=O)N1CCCCC1 | -16.8
34 | CCCc1c(C)nc2ccc(C(=O)O)cc2c1SCC(=O)O | -2.3
35 | Cc1nc2cc(Nc3nnc(-c4ccc(Cl)cc4)c4ccccc34)ccc2n1C | 10.8
36 | NC(=O)c1cccc(N=Cc2ccc(Br)s2)c1 | -9.1
37 | COc1ccc(/C=C2\SC(=S)N(c3ccc(C)cc3C)C2=O)cc1OC | 6.6
38 | CC(C)CN1C(=O)c2ccc(C(=O)Nc3cc(Cl)ccc3C(=O)O)cc2C1=O | 6.8

Row | Structure (SMILES) | displacement [%]
39 | Cc1ccccc1OCCSc1ncnc2nc[nH]c12 | 0.5
40 | COc1cc(Br)c(Br)c(/C=N\NC(=O)c2ccccc2Cl)c1O | 5.8
41 | O=C(O)c1ccc(N/N=C/c2ccc3c(c2)OCO3)cc1 | -9.2
42 | O=C(O)CN=Cc1c(O)[nH]c2ccccc12 | 2
43 | COc1cc(C2Nc3ccccc3NC3=C2C(=O)CC(c2ccc(Cl)cc2)C3)cc(OC)c1OC (stereo unspecified) | -3.4
44 | COc1ccccc1CNC(=O)COc1ccc(C)cc1C | -2.3
45 | COc1cc(CN2CCN(C(=O)c3cccs3)CC2)cc(OC)c1OC | -18.6
46 | CCc1ccc(NC(=S)NC(=O)c2ccc(Cl)cc2)cc1 | 2.1
47 | Cc1ccc(-c2nc3cc(Cl)cc(Cl)c3o2)cc1NC(=O)c1ccc(Br)o1 | -7.6
48 | Cc1onc(-c2c(Cl)cccc2Cl)c1C(=O)NC1CCCCCCC1 | -9.1
49 | CC(C)=CC(=O)CC(O)(c1ccccc1)C(F)(F)F (stereo unspecified) | -6.1
50 | O=C(N/N=C\c1ccc[nH]1)c1cccc2c3c([nH]c12)CCCC3 | 9.4
51 | O=C1c2ccc(Oc3ccc4c(c3)C(=O)N(Cc3cccnc3)C4=O)cc2C(=O)N1Cc1cccnc1 | -7
52 | Cc1ccc(OCC(=O)NCc2cccnc2)c(C)c1 | -0.3
53 | O=C(NNC(=O)c1cc2ccccc2oc1=O)c1ccccc1 | 1.8
54 | O=c1oc(-c2cccnc2)nc2ccccc12 | 7.2
55 | CCOc1ccc(NC(=O)c2c(NC(C)=O)sc3c2CCCC3)cc1 | 12.1
56 | CCOc1ccccc1C(=O)Nc1ccc(F)c(Cl)c1 | 8.1

Reference: PubChem BioAssay AID1240 (Sanford-Burnham Center for Chemical Genomics, 2008)
